# Measurements published in the supplement of paper PMC8728848.
# This is one part of the list.
# Legend:
# Assay in all cases: glycan array binding signal (z-score within array); higher = stronger binding
# Conditions in all cases: glycan notation: IUPAC condensed, linker removed
# GlcNAc(b1-3)GalNAc = target: GlcNAc(b1-3)GalNAc
# Summary of the method: (§1)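 Negative Z-scores can be read as non-binding. The Z-score is calculated within each array and then averaged across arrays of one protein sequence at different concentrations or buffers and across linkers. Arrays, 3228 in all, were curated from the Consortium for Functional Glycomics database and kept only where the protein sequence was available.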
# GlcNAc(b1-3)Man = target: GlcNAc(b1-3)Man
# Summary of the method: as §1
# [1] = target: GlcNAc(b1-3)[GlcNAc(b1-4)][GlcNAc(b1-6)]GlcNAc
# Summary of the method: as §1
# [2] = target: GlcNAc(b1-3)[GlcNAc(b1-6)]Gal(b1-4)GlcNAc
# Summary of the method: as §1
# [3] = target: GlcNAc(b1-3)[GlcNAc(b1-6)]GalNAc
# Summary of the method: as §1
# [4] = target: GlcNAc(b1-4)Gal(b1-4)GlcNAc
# Summary of the method: as §1
# GlcNAc(b1-4)GlcNAc = target: GlcNAc(b1-4)GlcNAc
# Summary of the method: as §1
# [5] = target: GlcNAc(b1-4)GlcNAc(b1-4)GlcNAc
# Summary of the method: as §1
# [6] = target: GlcNAc(b1-4)GlcNAc(b1-4)GlcNAc(b1-4)GlcNAc(b1-4)GlcNAc
# Summary of the method: as §1
# [7] = target: GlcNAc(b1-4)GlcNAc(b1-4)GlcNAc(b1-4)GlcNAc(b1-4)GlcNAc(b1-4)GlcNAc
# Summary of the method: as §1
# [8] = target: GlcNAc(b1-4)[GlcNAc(b1-6)]GalNAc
# Summary of the method: as §1
# [9] = target: GlcNAc(b1-6)Gal(b1-4)GlcNAc
# Summary of the method: as §1
# GlcNAc(b1-6)GalNAc = target: GlcNAc(b1-6)GalNAc
# Summary of the method: as §1
# [10] = target: GlcNAc6S(b1-3)Gal(b1-4)GlcNAc
# Summary of the method: as §1
# Kdn(a2-3)Gal(b1-3)GalNAc = target: Kdn(a2-3)Gal(b1-3)GalNAc
# Summary of the method: as §1
# Kdn(a2-3)Gal(b1-3)GlcNAc = target: Kdn(a2-3)Gal(b1-3)GlcNAc
# Summary of the method: as §1
# Kdn(a2-3)Gal(b1-4)Glc = target: Kdn(a2-3)Gal(b1-4)Glc
# Summary of the method: as §1
# Kdn(a2-3)Gal(b1-4)GlcNAc = target: Kdn(a2-3)Gal(b1-4)GlcNAc
# Summary of the method: as §1
# [11] = target: Kdn(a2-3)Gal(b1-4)[Fuc(a1-3)]GlcNAc
# Summary of the method: as §1
# Kdn(a2-6)Gal(b1-4)GlcNAc = target: Kdn(a2-6)Gal(b1-4)GlcNAc
# Summary of the method: as §1
# [12] = target: Man(a1-2)Man(a1-2)Man(a1-3)Man
# Summary of the method: as §1
# [13] = target: Man(a1-2)Man(a1-2)Man(a1-6)[Man(a1-3)]Man
# Summary of the method: as §1
# Man(a1-2)Man(a1-3)Man = target: Man(a1-2)Man(a1-3)Man
# Summary of the method: as §1
# [14] = target: Man(a1-2)Man(a1-3)[Man(a1-2)Man(a1-6)]Man
# Summary of the method: as §1
# [15] = target: Man(a1-2)Man(a1-3)[Man(a1-2)Man(a1-6)]Man(a1-6)[Man(a1-2)Man(a1-2)Man(a1-3)]Man
# Summary of the method: as §1
# [16] = target: Man(a1-2)Man(a1-3)[Man(a1-2)Man(a1-6)]Man(a1-6)[Man(a1-2)Man(a1-2)Man(a1-3)]Man(b1-4)GlcNAc(b1-4)GlcNAc
# Summary of the method: as §1
# [17] = target: Man(a1-2)Man(a1-3)[Man(a1-6)]Man(a1-6)[Man(a1-2)Man(a1-3)]Man(b1-4)GlcNAc(b1-4)GlcNAc
# Summary of the method: as §1
# [18] = target: Man(a1-2)Man(a1-6)[Man(a1-3)]Man(a1-6)[Man(a1-2)Man(a1-2)Man(a1-3)]Man
# Summary of the method: as §1
# [19] = target: Man(a1-2)Man(a1-6)[Man(a1-3)]Man(a1-6)[Man(a1-2)Man(a1-2)Man(a1-3)]Man(b1-4)GlcNAc(b1-4)GlcNAc
# Summary of the method: as §1
# Man(a1-3)[Man(a1-6)]Man = target: Man(a1-3)[Man(a1-6)]Man
# Summary of the method: as §1
# [20] = target: Man(a1-3)[Man(a1-6)]Man(a1-6)[Man(a1-2)Man(a1-3)]Man(b1-4)GlcNAc(b1-4)GlcNAc
# Summary of the method: as §1
# [21] = target: Man(a1-3)[Man(a1-6)]Man(a1-6)[Man(a1-3)]Man
# Summary of the method: as §1
# [22] = target: Man(a1-3)[Man(a1-6)]Man(a1-6)[Man(a1-3)]Man(b1-4)GlcNAc(b1-4)GlcNAc
# Summary of the method: as §1
# [23] = target: Man(a1-3)[Man(a1-6)]Man(b1-4)GlcNAc(b1-4)GlcNAc
# Summary of the method: as §1
# [24] = target: Man(a1-3)[Man(a1-6)]Man(b1-4)GlcNAc(b1-4)[Fuc(a1-6)]GlcNAc
# Summary of the method: as §1
# Man(a1-6)Man = target: Man(a1-6)Man
# Summary of the method: as §1
# Man(b1-4)GlcNAc = target: Man(b1-4)GlcNAc
# Summary of the method: as §1
# MurNAc(b1-4)GlcNAc = target: MurNAc(b1-4)GlcNAc
# Summary of the method: as §1
binder,measurement,setting,value
"Gal-9-hFc (Mus musculus), O08573-2 (protein) MALFSAQSPYINPIIPFTGPIQGGLQEGLQVTLQGTTKSFAQRFVVNFQNSFNGNDIAFHFNPRFEEGGYVVCNTKQNGQWGPEERKMQMPFQKGMPFELCFLVQRSEFKVMVNKKFFVQYQHRVPYHLVDTIAVSGCLKLSFITFQTQNFRPAHQAPMAQTTIHMVHSTPGQMFSTPGIPPVVYPTPAYTIPFYTPIPNGLYPSKSIMISGNVLPDATRFHINLRCGGDIAFHLNPRFNENAVVRNTQINNSWGQEERSLLGRMPFSRGQSFSVWIICEGHCFKVAVNGQHMCEYYHRLKNLQDINTLEVAGDIQLTHVQT",glycan array binding signal (z-score),GlcNAc(b1-3)GalNAc,-0.45
same,glycan array binding signal (z-score),GlcNAc(b1-3)Man,1.05
same,glycan array binding signal (z-score),[1],-0.562
same,glycan array binding signal (z-score),[2],-0.353
same,glycan array binding signal (z-score),[3],-0.343
same,glycan array binding signal (z-score),[4],-0.489
same,glycan array binding signal (z-score),GlcNAc(b1-4)GlcNAc,4.66
same,glycan array binding signal (z-score),[5],-0.132
same,glycan array binding signal (z-score),[6],-0.14
same,glycan array binding signal (z-score),[7],-0.128
same,glycan array binding signal (z-score),[8],-0.457
same,glycan array binding signal (z-score),[9],-0.464
same,glycan array binding signal (z-score),GlcNAc(b1-6)GalNAc,-0.387
same,glycan array binding signal (z-score),[10],-0.36
same,glycan array binding signal (z-score),Kdn(a2-3)Gal(b1-3)GalNAc,-0.115
same,glycan array binding signal (z-score),Kdn(a2-3)Gal(b1-3)GlcNAc,-0.153
same,glycan array binding signal (z-score),Kdn(a2-3)Gal(b1-4)Glc,2.38
same,glycan array binding signal (z-score),Kdn(a2-3)Gal(b1-4)GlcNAc,-0.232
same,glycan array binding signal (z-score),[11],0.284
same,glycan array binding signal (z-score),Kdn(a2-6)Gal(b1-4)GlcNAc,-0.286
same,glycan array binding signal (z-score),[12],-0.431
same,glycan array binding signal (z-score),[13],-0.231
same,glycan array binding signal (z-score),Man(a1-2)Man(a1-3)Man,-0.472
same,glycan array binding signal (z-score),[14],-0.471
same,glycan array binding signal (z-score),[15],-0.447
same,glycan array binding signal (z-score),[16],0.141
same,glycan array binding signal (z-score),[17],-0.393
same,glycan array binding signal (z-score),[18],-0.354
same,glycan array binding signal (z-score),[19],-0.312
same,glycan array binding signal (z-score),Man(a1-3)[Man(a1-6)]Man,-0.179
same,glycan array binding signal (z-score),[20],-0.26
same,glycan array binding signal (z-score),[21],1.45
same,glycan array binding signal (z-score),[22],-0.264
same,glycan array binding signal (z-score),[23],-0.509
same,glycan array binding signal (z-score),[24],-0.391
same,glycan array binding signal (z-score),Man(a1-6)Man,0.75
same,glycan array binding signal (z-score),Man(b1-4)GlcNAc,-0.031
same,glycan array binding signal (z-score),MurNAc(b1-4)GlcNAc,-0.303
